Changes are numbered by the printed parent chain; changes in the protein carry UniProt numbers. This is one part of the list.
T1: RBFOX1 RRM (Homo sapiens, UniProt Q9NWB1 109-208)
T1 sequence: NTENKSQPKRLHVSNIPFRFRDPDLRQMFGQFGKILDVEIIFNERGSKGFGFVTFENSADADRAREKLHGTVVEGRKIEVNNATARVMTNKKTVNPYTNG

B1: CCAACAC (DNA:RNA)
RNA: GGGAGACCGGAAUUCAGAUUGUCCCCAACACUUAAAUCCCGUCGUAGCCACCA
DNA 1: CAATCTGAATTCCGGTCTCCC
DNA 2: TGGTGGCTACGACGGGATT
B2: ACUUUUA (DNA:RNA)
RNA: B1 RNA with C25A, A27U, A28U, C29U, A30U, C31A
DNA 1: CAATCTGAATTCCGGTCTCCC
DNA 2: TGGTGGCTACGACGGGATT
B3: ACUAGCC (DNA:RNA)
RNA: B1 RNA with C25A, A27U, C29G, A30C
DNA 1: CAATCTGAATTCCGGTCTCCC
DNA 2: TGGTGGCTACGACGGGATT
B4: CUAUGCC (DNA:RNA)
RNA: B1 RNA with C26U, A28U, C29G, A30C
DNA 1: CAATCTGAATTCCGGTCTCCC
DNA 2: TGGTGGCTACGACGGGATT
B5: GCAGGUU (DNA:RNA)
RNA: B1 RNA with C25G, A28G, C29G, A30U, C31U
DNA 1: CAATCTGAATTCCGGTCTCCC
DNA 2: TGGTGGCTACGACGGGATT
B6: CUGUUGU (DNA:RNA)
RNA: B1 RNA with C26U, A27G, A28U, C29U, A30G, C31U
DNA 1: CAATCTGAATTCCGGTCTCCC
DNA 2: TGGTGGCTACGACGGGATT
B7: CGACGUC (DNA:RNA)
RNA: B1 RNA with C26G, A28C, C29G, A30U
DNA 1: CAATCTGAATTCCGGTCTCCC
DNA 2: TGGTGGCTACGACGGGATT
B8: CACGAUC (DNA:RNA)
RNA: B1 RNA with C26A, A27C, A28G, C29A, A30U
DNA 1: CAATCTGAATTCCGGTCTCCC
DNA 2: TGGTGGCTACGACGGGATT
B9: GGUGGAU (DNA:RNA)
RNA: B1 RNA with C25G, C26G, A27U, A28G, C29G, C31U
DNA 1: CAATCTGAATTCCGGTCTCCC
DNA 2: TGGTGGCTACGACGGGATT
B10: GCCUUUC (DNA:RNA)
RNA: B1 RNA with C25G, A27C, A28U, C29U, A30U
DNA 1: CAATCTGAATTCCGGTCTCCC
DNA 2: TGGTGGCTACGACGGGATT
B11: UGCUCUC (DNA:RNA)
RNA: B1 RNA with C25U, C26G, A27C, A28U, A30U
DNA 1: CAATCTGAATTCCGGTCTCCC
DNA 2: TGGTGGCTACGACGGGATT
B12: GGAACAG (DNA:RNA)
RNA: B1 RNA with C25G, C26G, C31G
DNA 1: CAATCTGAATTCCGGTCTCCC
DNA 2: TGGTGGCTACGACGGGATT
B13: CAUUGUG (DNA:RNA)
RNA: B1 RNA with C26A, A27U, A28U, C29G, A30U, C31G
DNA 1: CAATCTGAATTCCGGTCTCCC
DNA 2: TGGTGGCTACGACGGGATT
B14: CACGUCA (DNA:RNA)
RNA: B1 RNA with C26A, A27C, A28G, C29U, A30C, C31A
DNA 1: CAATCTGAATTCCGGTCTCCC
DNA 2: TGGTGGCTACGACGGGATT
B15: UGCGCCC (DNA:RNA)
RNA: B1 RNA with C25U, C26G, A27C, A28G, A30C
DNA 1: CAATCTGAATTCCGGTCTCCC
DNA 2: TGGTGGCTACGACGGGATT
B16: CCCUAGU (DNA:RNA)
RNA: B1 RNA with A27C, A28U, C29A, A30G, C31U
DNA 1: CAATCTGAATTCCGGTCTCCC
DNA 2: TGGTGGCTACGACGGGATT
B17: GCGCGUA (DNA:RNA)
RNA: B1 RNA with C25G, A27G, A28C, C29G, A30U, C31A
DNA 1: CAATCTGAATTCCGGTCTCCC
DNA 2: TGGTGGCTACGACGGGATT
B18: UAUUCCA (DNA:RNA)
RNA: B1 RNA with C25U, C26A, A27U, A28U, A30C, C31A
DNA 1: CAATCTGAATTCCGGTCTCCC
DNA 2: TGGTGGCTACGACGGGATT
B19: AGAGUUC (DNA:RNA)
RNA: B1 RNA with C25A, C26G, A28G, C29U, A30U
DNA 1: CAATCTGAATTCCGGTCTCCC
DNA 2: TGGTGGCTACGACGGGATT
B20: CAAACAC (DNA:RNA)
RNA: B1 RNA with C26A
DNA 1: CAATCTGAATTCCGGTCTCCC
DNA 2: TGGTGGCTACGACGGGATT
B21: CGGACGU (DNA:RNA)
RNA: B1 RNA with C26G, A27G, A30G, C31U
DNA 1: CAATCTGAATTCCGGTCTCCC
DNA 2: TGGTGGCTACGACGGGATT
B22: AGCCCAU (DNA:RNA)
RNA: B1 RNA with C25A, C26G, A27C, A28C, C31U
DNA 1: CAATCTGAATTCCGGTCTCCC
DNA 2: TGGTGGCTACGACGGGATT
B23: UAGUCGG (DNA:RNA)
RNA: B1 RNA with C25U, C26A, A27G, A28U, A30G, C31G
DNA 1: CAATCTGAATTCCGGTCTCCC
DNA 2: TGGTGGCTACGACGGGATT
B24: CUACCCG (DNA:RNA)
RNA: B1 RNA with C26U, A28C, A30C, C31G
DNA 1: CAATCTGAATTCCGGTCTCCC
DNA 2: TGGTGGCTACGACGGGATT
B25: CCAACCA (DNA:RNA)
RNA: B1 RNA with A30C, C31A
DNA 1: CAATCTGAATTCCGGTCTCCC
DNA 2: TGGTGGCTACGACGGGATT
B26: GCCCAUA (DNA:RNA)
RNA: B1 RNA with C25G, A27C, A28C, C29A, A30U, C31A
DNA 1: CAATCTGAATTCCGGTCTCCC
DNA 2: TGGTGGCTACGACGGGATT
B27: UUUUCAU (DNA:RNA)
RNA: B1 RNA with C25U, C26U, A27U, A28U, C31U
DNA 1: CAATCTGAATTCCGGTCTCCC
DNA 2: TGGTGGCTACGACGGGATT
B28: GCUCUAA (DNA:RNA)
RNA: B1 RNA with C25G, A27U, A28C, C29U, C31A
DNA 1: CAATCTGAATTCCGGTCTCCC
DNA 2: TGGTGGCTACGACGGGATT
B29: AUGUUGA (DNA:RNA)
RNA: GGGAGACCGGAAUUCAGAUUGUCCAUGUUGAUUAAAUCCCGUCGUAGCCACCA
DNA 1: CAATCTGAATTCCGGTCTCCC
DNA 2: TGGTGGCTACGACGGGATT
B30: UACUGAA (DNA:RNA)
RNA: B29 RNA with A25U, U26A, G27C, U29G, G30A
DNA 1: CAATCTGAATTCCGGTCTCCC
DNA 2: TGGTGGCTACGACGGGATT
B31: UCCUACA (DNA:RNA)
RNA: B29 RNA with A25U, U26C, G27C, U29A, G30C
DNA 1: CAATCTGAATTCCGGTCTCCC
DNA 2: TGGTGGCTACGACGGGATT

biological target: T1, RBFOX1 RRM; test: EMSA; HiTS-Eq, 1 nM pool, 10 min; buffer printed only for the single-RNA assays: 10 mM Tris pH 7.5, 150 mM NaCl, 3.4 mM EDTA, 0.001% NP-40, 30 C; settings: tags: His6 N-terminal (pET28a); label: 5' 32P
How it was run: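 A pool of RNA with 7 randomized nucleotides, 5′-radiolabelled and with DNA-annealed flanks, was equilibrated at 1 nM for 10 min in 50 µL with purified RbFox RRM, wild type or mutant, across increasing protein concentrations. Free RNA was separated by 8% native PAGE, excised, reverse-transcribed, barcoded by PCR and sequenced. Relative association constants were obtained from read-count changes of each RNA species versus the control reaction and normalised to the cognate motif.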

Binder	binding signal
B1	0.00438 KA relative to UGCAUGU
B2	0.00147 KA relative to UGCAUGU
B3	0.00569 KA relative to UGCAUGU
B4	0.0111 KA relative to UGCAUGU
B5	0.0151 KA relative to UGCAUGU
B6	0.0226 KA relative to UGCAUGU
B7	0.00509 KA relative to UGCAUGU
B8	0.00473 KA relative to UGCAUGU
B9	0.0111 KA relative to UGCAUGU
B10	0.0185 KA relative to UGCAUGU
B11	0.0211 KA relative to UGCAUGU
B12	0.0101 KA relative to UGCAUGU
B13	0.0157 KA relative to UGCAUGU
B14	0.00142 KA relative to UGCAUGU
B15	0.00933 KA relative to UGCAUGU
B16	0.00573 KA relative to UGCAUGU

Binder	binding signal
B17	0.0146 KA relative to UGCAUGU
B18	0.00337 KA relative to UGCAUGU
B19	0.0124 KA relative to UGCAUGU
B20	0.000671 KA relative to UGCAUGU
B21	0.0196 KA relative to UGCAUGU
B22	0.00201 KA relative to UGCAUGU
B23	0.0122 KA relative to UGCAUGU
B24	0.00255 KA relative to UGCAUGU
B25	0.00186 KA relative to UGCAUGU
B26	0.00463 KA relative to UGCAUGU
B27	0.0103 KA relative to UGCAUGU
B28	0.00896 KA relative to UGCAUGU
B29	0.0231 KA relative to UGCAUGU
B30	0.0144 KA relative to UGCAUGU
B31	0.00176 KA relative to UGCAUGU

Reference: publication PMC9911399, “Two distinct binding modes provide the RNA-binding protein RbFox with extraordinary sequence specificity”
